The source of these data is paper PMC4336329 (PLoS ONE, 2015).

Molecules are shown by their SMILES. In all, about 310,000 compounds went through this assay and about 14,000 (4.5%) showed an effect of 50% or more. The effect is printed as a negative number. The list shows a part of the results.
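Further: peak tail current of the secondary pulse compared with the same well before compound.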

For the test, the target named is human ether-à-go-go-related gene (hERG) potassium channel (human, UniProt Q12809). In words: primary screen, population patch clamp on CHO cells stably expressing hERG.
Chain of human ether-à-go-go-related gene (hERG) potassium channel (Q12809 whole entry, looked up): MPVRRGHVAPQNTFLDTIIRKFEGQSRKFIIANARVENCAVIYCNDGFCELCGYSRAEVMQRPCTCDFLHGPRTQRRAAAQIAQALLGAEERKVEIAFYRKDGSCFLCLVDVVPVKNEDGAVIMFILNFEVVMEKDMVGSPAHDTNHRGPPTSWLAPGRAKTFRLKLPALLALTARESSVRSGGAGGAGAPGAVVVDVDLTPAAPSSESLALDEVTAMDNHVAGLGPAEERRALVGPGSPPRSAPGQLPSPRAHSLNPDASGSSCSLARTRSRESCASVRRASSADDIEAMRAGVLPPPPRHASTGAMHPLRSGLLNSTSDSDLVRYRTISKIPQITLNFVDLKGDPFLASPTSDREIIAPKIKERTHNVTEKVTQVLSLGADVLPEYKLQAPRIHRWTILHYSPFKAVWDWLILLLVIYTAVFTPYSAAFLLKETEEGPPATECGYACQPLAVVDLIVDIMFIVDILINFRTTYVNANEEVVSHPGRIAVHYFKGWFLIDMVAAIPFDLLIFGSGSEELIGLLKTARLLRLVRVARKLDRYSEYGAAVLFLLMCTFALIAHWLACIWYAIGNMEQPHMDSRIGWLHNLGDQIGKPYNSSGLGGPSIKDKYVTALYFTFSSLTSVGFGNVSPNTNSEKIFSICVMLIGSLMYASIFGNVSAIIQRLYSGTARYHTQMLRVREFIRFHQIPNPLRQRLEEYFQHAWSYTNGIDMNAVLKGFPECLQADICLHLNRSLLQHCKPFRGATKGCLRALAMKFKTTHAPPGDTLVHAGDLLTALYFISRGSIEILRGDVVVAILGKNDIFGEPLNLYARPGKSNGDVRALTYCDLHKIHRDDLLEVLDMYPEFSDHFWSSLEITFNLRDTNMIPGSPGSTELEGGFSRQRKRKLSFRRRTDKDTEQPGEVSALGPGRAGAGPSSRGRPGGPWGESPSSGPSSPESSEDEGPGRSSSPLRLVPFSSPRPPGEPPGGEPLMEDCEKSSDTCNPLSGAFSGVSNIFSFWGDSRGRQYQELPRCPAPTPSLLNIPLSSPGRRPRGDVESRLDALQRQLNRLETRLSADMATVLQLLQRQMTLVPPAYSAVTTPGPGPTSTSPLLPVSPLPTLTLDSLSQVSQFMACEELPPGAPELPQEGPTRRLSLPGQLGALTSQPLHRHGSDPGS
Consider `COc1cc(C(=O)NCCOc2cc(C)cc(C)c2)cc(OC)c1OC`, for which the “hERG current change (%, negative = inhibition) at 10uM” value is -6.59%. Take `C=C(C)Cn1c(CCNC(=O)C(C)(C)C)nc2ccccc21`: the “hERG current change (%, negative = inhibition) at 10uM” value worked out at 10%. Take `O=C(Nc1ccc(S(=O)(=O)Nc2nccs2)cc1)c1cccc(N2C(=O)c3ccccc3C2=O)c1`: the “hERG current change (%, negative = inhibition) at 10uM” value is reported as 6.31%. The result for `CCCN(CC(=O)Nc1ccccc1C)C(=O)CC(NC(=O)c1ccccc1)c1ccccc1` (centres unmarked) reads -52.7%; that for `Cn1nc([N+](=O)[O-])nc1Sc1ccc(Cl)cc1`, -8.08%; that for `CCOc1ccc(S(=O)(=O)NCC(c2ccc3c(c2)OCO3)N2CCN(C)CC2)cc1` (centres unmarked), -59.2%.

As for `N#Cc1ccc(S(=O)(=O)N2CCN(CC(=O)Nc3ccccc3C(=O)NC3CC3)CC2)cc1`, the “hERG current change (%, negative = inhibition) at 10uM” value is -73.9%. Regarding `NC(=O)C1CCN(C(=O)C(=O)c2cn(CC(=O)N3CCCC3)c3ccccc23)CC1`, the “hERG current change (%, negative = inhibition) at 10uM” value was found to be 6.67%. Regarding `O=C(CSc1ccncc1)Nc1ccc2ccccc2c1`, the “hERG current change (%, negative = inhibition) at 10uM” value is listed as 12.4%. The result for `CC#CCN(Cc1ccco1)C(=O)C1CCC(=O)N(Cc2ccccc2F)C1` (centres unmarked) reads -7.03%; that for `O=C(Nc1ccccn1)C1CCN(S(=O)(=O)c2ccc3c(c2)OCCO3)CC1`, -11.5%. Turning to `COc1ccc(CNC(=O)Nc2cccc(C)c2)cc1`, the “hERG current change (%, negative = inhibition) at 10uM” value is 4.23%. Take `CCOc1cc(CNCc2ccccc2)ccc1OCc1ccc(Cl)cc1.Cl`: the “hERG current change (%, negative = inhibition) at 10uM” value is reported as -33.1%. As to `O=C(NCC1CCCO1)c1cc([N+](=O)[O-])ccc1Cl` (centres unmarked), the “hERG current change (%, negative = inhibition) at 10uM” value turned out to be 8.54%. Consider `CCC(=O)Nc1ccc(NC(=O)CSc2nnc(-c3ccco3)n2CC)cc1`, for which the “hERG current change (%, negative = inhibition) at 10uM” value was 8.22%. On to `CC(=C/c1ccco1)/C=N/N1CCN(c2ccccc2)CC1`, for which the “hERG current change (%, negative = inhibition) at 10uM” value was -8.66%.

Take `COc1ccc(Cl)cc1NC(=O)CN(C)C(=O)c1cn(-c2ccccc2)nc1-c1cccnc1`: the “hERG current change (%, negative = inhibition) at 10uM” value is listed as -59.9%. The result for `COc1ccc(S(=O)(=O)Nc2ccccn2)cc1C` reads 20.1%; that for `CCc1ccccc1NC(=O)NC(C)c1ccc2c(c1)OCO2` (centres unmarked), 14%. With `CC(C)(C)C(=O)Nc1nnc(SCC(=O)NCc2ccco2)s1`, the “hERG current change (%, negative = inhibition) at 10uM” value was -12%.

`Cc1ccc(C(=O)Nc2ccc3c(c2)C(=O)N(CC2CCCO2)C3=O)cc1` (centres unmarked): the “hERG current change (%, negative = inhibition) at 10uM” value came to 12.4%. Then `COc1ccc(N2CCN(CC(=O)NCc3ccc(Cl)cc3)CC2)cc1`, with -55.7%. Then `CCN(CC(=O)Nc1c(F)cccc1F)C(=O)CCSc1ccc(C)cc1`, with -19%; and `O=C(O)[C@]1(S(=O)(=O)c2ccccc2)C[C@@H]2ON=C(c3cccc(Br)c3)[C@@H]2C1`, with -2.55%; and `CCOc1ccccc1NC(=O)C(C)CC` (centres unmarked), with -6.76%.

As for `COc1ccc(NC(=O)C2C3C=CC4(O3)C2C(=O)N(CCN2CCCCC2)C4C(=O)NC2CCCCC2)cc1` (centres unmarked), the “hERG current change (%, negative = inhibition) at 10uM” value was 9.9%. Turning to `CC12CN(C(=O)c3ccco3)CC(c3ccccc3)(CN(C(=O)c3ccco3)C1)C2=O`, the “hERG current change (%, negative = inhibition) at 10uM” value is listed as -9.76%.

For the compound `CCOC(CCNC(=O)c1cc2c(=O)[nH]c3ccccc3c2s1)OCC`, the “hERG current change (%, negative = inhibition) at 10uM” value was determined as 5.3%. On to `CCCCn1c(SCC(=O)N2CCC(C)CC2)nc2cc(S(N)(=O)=O)ccc21`, for which the “hERG current change (%, negative = inhibition) at 10uM” value is reported as -30.2%. Then `CC(CN1CCC(n2nccc2NC(=O)C2CCCC2)CC1)c1ccccc1` (centres unmarked), with -24%; and `CCC(C(=O)OCC(=O)c1c(N)n(CC(C)C)c(=O)n(C)c1=O)c1ccccc1` (centres unmarked), with -2.13%. In the case of `O=C(O)CCC(CNS(=O)(=O)c1ccccc1)C(F)(F)F` (centres unmarked), the “hERG current change (%, negative = inhibition) at 10uM” value is listed as 21.7%. Regarding `CCN(C(=O)COC(=O)C1CCN(S(=O)(=O)c2ccc(C)c(C)c2)CC1)C1CCCCC1`, the “hERG current change (%, negative = inhibition) at 10uM” value is on record as -10.4%. The result for `CCC1CN(C(=O)NCc2cccc(OC)c2)c2cc(Cl)ccc2O1` (centres unmarked) reads 10.4%; that for `Cc1ccc(S(=O)(=O)N2CCN(c3cnn(C)c(=O)c3Cl)CC2)cc1`, -6.23%. Then `CCOC(=O)c1c(NS(=O)(=O)c2ccccc2)n(CCCOC)c2nc3ccccc3nc12`, with 1.43%; and `CC(C)CNC(=O)CSc1ccc(Cl)cc1`, with -3.84%; and `CCC(C(=O)NC1CCCC1)N(C(=O)Cn1nnc(-c2ccc(C)o2)n1)c1cnc2ccccc2c1` (centres unmarked), with 5.57%. Take `Cc1cccc(OCC(=O)N2CCN(c3nnc(-c4ccccc4)c4ccccc34)CC2)c1`: the “hERG current change (%, negative = inhibition) at 10uM” value is listed as -69.7%.

Take `COc1ccc(-n2c(=O)n(Cc3ccccc3)c(=O)c3[nH]cnc32)cc1`: the “hERG current change (%, negative = inhibition) at 10uM” value was -17.1%. `O=C(NCc1ccco1)c1cnc2ccccn2c1=O`: the “hERG current change (%, negative = inhibition) at 10uM” value is recorded as -3.03%. Then `COc1cccc(/C=C2\SC(N3CCCC(C)C3)=NC2=O)c1OC` (centres unmarked), with 5.94%; and `CC(=O)Nc1cccc(OCC(O)Cn2cnc3ccccc32)c1` (centres unmarked), with 25.3%. In the case of `CCOC(=O)N1CCN(C(=O)CCn2nc(-c3ccccc3)ccc2=O)CC1`, the “hERG current change (%, negative = inhibition) at 10uM” value was -42.8%.

Consider `CCOC(=O)CN1C(=O)C(O)(c2c(C)[nH]c3ccccc23)c2ccccc21` (centres unmarked), for which the “hERG current change (%, negative = inhibition) at 10uM” value is -1.32%. With `CCOc1ccc(C(F)(F)F)cc1NC(C)=O`, the “hERG current change (%, negative = inhibition) at 10uM” value was determined as 3.6%. Consider `CC(C)Cc1oc(C(=O)O)cc1CN1CCOCC1.Cl`, for which the “hERG current change (%, negative = inhibition) at 10uM” value is reported as 12.3%. In the case of `CCSc1cc(C2C(C#N)=C(N)OC(C)=C2C(=O)OC)c(C)o1` (centres unmarked), the “hERG current change (%, negative = inhibition) at 10uM” value is 4.3%. The result for `Cc1ccc(C(=O)OCC(=O)N2CCCC2)cc1` reads -2.99%. The result for `NC(=O)c1nsc(C(=O)N(c2ccc3c(c2)OCO3)C(C(=O)NCC2CCCO2)c2ccc(F)cc2)c1N` (centres unmarked) reads -8.25%; that for `CN([C@@H](Cc1ccc(OS(=O)(=O)c2cccc3cnccc23)cc1)C(=O)N1CCN(c2ccccc2)CC1)S(=O)(=O)c1cccc2cnccc12`, -2.74%; that for `O=C(NC1CC1)c1ccc(CS(=O)c2ccccc2)o1` (centres unmarked), -2.49%. In the case of `Cn1nnnc1SCC(=O)NCc1cc([N+](=O)[O-])ccc1O`, the “hERG current change (%, negative = inhibition) at 10uM” value is given as 31.9%. For `COc1cccc(CC(=O)N2CCC(n3nccc3NC(=O)C3CCOC3)CC2)c1` (centres unmarked), the “hERG current change (%, negative = inhibition) at 10uM” value is 21.7%.

As to `CCOC(=O)C1(CC2CC2)CCN(Cc2ccc(C(=O)OC)cc2)CC1`, the “hERG current change (%, negative = inhibition) at 10uM” value was -57%. In the case of `CCOc1ccc(S(=O)(=O)N2Cc3ccccc3CC2C(=O)NCCCn2ccnc2)cc1` (centres unmarked), the “hERG current change (%, negative = inhibition) at 10uM” value is on record as -38.2%. For the compound `COc1ccc(/C=C2\CCCC3C2=NN(C(=O)c2scnc2C)C3c2ccc(OC)cc2)cc1` (centres unmarked), the “hERG current change (%, negative = inhibition) at 10uM” value was found to be 4.4%. Turning to `CCOc1ccc(-c2nnc(NC(=O)Cc3ccc(OC)cc3)o2)cc1`, the “hERG current change (%, negative = inhibition) at 10uM” value is recorded as 17.9%.

With `Fc1cccc(Cl)c1/C=N/Nc1ccccn1`, the “hERG current change (%, negative = inhibition) at 10uM” value was 15.2%. On to `CN(CC(=O)Nc1ccccc1Cl)C(=O)COC(=O)CNC(=O)c1ccc(Br)o1`, for which the “hERG current change (%, negative = inhibition) at 10uM” value is -61.4%. The result for `CCc1ccc(OCC(=O)NNC(=O)C2CCC2)cc1` reads -44.9%; that for `COCCN(C(=O)c1ccccc1F)c1c(N)n(Cc2ccccc2)c(=O)[nH]c1=O`, 27.1%; that for `COc1ccc(OCC(=O)Nc2ccc(N3CCN(C(=O)c4ccccc4)CC3)c(Cl)c2)cc1`, -19.4%. Take `COc1cc(CNCc2ccccc2)ccc1OCC(O)c1ccccc1.O=C(O)C(=O)O` (centres unmarked): the “hERG current change (%, negative = inhibition) at 10uM” value was -24.9%. As for `CCOc1ccccc1NC(=O)Nc1cccc(C(C)=O)c1`, the “hERG current change (%, negative = inhibition) at 10uM” value was -36.3%.

With `O=C(CNC(=O)c1ccccc1)Nc1ccsc1C(=O)O`, the “hERG current change (%, negative = inhibition) at 10uM” value was determined as 8.57%. The result for `Br.CCOC(=O)CN1C2=NCCCN2c2ccccc21` reads 2.95%; that for `NC(=O)C1CCN(C(=O)c2cccc(CN3C(=O)c4ccccc4C3=O)c2)CC1`, -4.24%; that for `C[C@H](NC(=O)c1cc2cc(Cl)ccc2n1C)C(=O)N1CCC(C(=O)O)CC1`, 14.5%.

Take `O=C(COC(=O)c1cccnc1Nc1cccc(C(F)(F)F)c1)NCc1ccc2c(c1)OCO2`: the “hERG current change (%, negative = inhibition) at 10uM” value came to 18.4%. For `CS(=O)(=O)N1CCC(C(=O)Nc2ccccc2)CC1`, the “hERG current change (%, negative = inhibition) at 10uM” value was determined as 0.0372%. Regarding `CCCc1c(C(=O)N/N=C(\C)c2ccc(O)cc2)nnn1-c1nonc1N`, the “hERG current change (%, negative = inhibition) at 10uM” value amounted to 3.04%.

Regarding `CSc1ccc(S(=O)(=O)NCC(=O)OCC(=O)NC2(C#N)CCCCC2)cc1[N+](=O)[O-]`, the “hERG current change (%, negative = inhibition) at 10uM” value was determined as 0.00068%.

`COc1ccc(-n2nc3c(c2NC(=O)COc2cccc(OC)c2)CS(=O)(=O)C3)cc1`: the “hERG current change (%, negative = inhibition) at 10uM” value is recorded as -29.5%. The result for `COc1cc(OC)c(OC)cc1CN1CCN(Cc2ccco2)CC1.O=C(O)C(=O)O` reads 18.1%; that for `C=CCN(c1ccccc1C(=O)O)S(=O)(=O)/C=C/c1ccccc1`, 23.5%; that for `Cc1cc(C)c(NC(=O)CSc2nnc(CN3CCOCC3)n2C)c(C)c1`, 13.5%.

As to `O=C(CNc1ccccc1)N/N=C/c1ccc2c(c1)OCO2`, the “hERG current change (%, negative = inhibition) at 10uM” value is 13.1%. Consider `Nc1c(Cl)nc(-c2ccccc2)nc1Cl`, for which the “hERG current change (%, negative = inhibition) at 10uM” value was 17.2%. Regarding `Cn1c(NN)nc2sc3c(c2c1=O)CC(C)(C)OC3`, the “hERG current change (%, negative = inhibition) at 10uM” value is given as 9.89%. Turning to `CCOC(=O)CSc1ncc(OC)c(=O)[nH]1`, the “hERG current change (%, negative = inhibition) at 10uM” value is 19.4%. With `CCOc1ccc(NC(=O)COc2ccc3c(c2)CCC3)cc1OC`, the “hERG current change (%, negative = inhibition) at 10uM” value is recorded as 3.04%. On to `N#Cc1c(-c2ccc(Cl)cc2)ccn2nc(C3CCCCC3)nc12`, for which the “hERG current change (%, negative = inhibition) at 10uM” value is recorded as 14.3%. As to `CCCCCCCc1ccc(-c2ccc(O)cc2)nc1`, the “hERG current change (%, negative = inhibition) at 10uM” value came out at 16.9%. For `CCCCN(CCCC)C(=O)C[n+]1cccc(/C=N/O)c1.[Cl-]`, the “hERG current change (%, negative = inhibition) at 10uM” value is -9.09%. `CCc1ccc(N2CC(C(=O)Nc3cccc(S(=O)(=O)N4CCCC4)c3)CC2=O)cc1` (centres unmarked): the “hERG current change (%, negative = inhibition) at 10uM” value is reported as -15.9%.
